What was measured:
[1] = system: house dust mite-induced goblet cell formation; assay: Therapeutic treatment in a chronic house dust mite model; assay type: in vivo, mouse; details: antibody D3 20 mg/kg i.p. days 22, 24, 26, 28, 30; HDM intranasally 5 weeks; FIG. 8
Method: Female Balb/c mice (20-25 g) were obtained from Charles River (Morgate, UK). Mice were housed under specific pathogen free conditions and were provided with food and water ad libitum. Experiments were performed in accordance with the UK Animals Scientific Procedures Act 1986. Mice received 25 μg of house dust mite (HDM; D.pteronyssinus, Greer laboratories, US) or saline intranasally on 5 days a week for 5 weeks (days 1-5, 8-12, 15-19, 22-26, 29-31). Mice received either 20 mg/kg neutralizing anti-Notch2 antibody α-N2 (antibody D3 above) or isotype control IgG, intraperitoneally 2 hours before intranasal challenge with HDM on days 22, 24, 26, 28 and 30 only. Mice were euthanized 24 hours after their final saline or HDM administration (day 32). […] Mucins were detected within the airways of the sections by a two-stage immunoperoxidase method using Ulex Europaeus agglutinin-1 (UEA-1) (Sigma, UK). UEA-1 levels were assessed in the lung sections using Imaging Associates KS400 version 3.0 image analyser. Ten airways were analyzed per mouse and the area of UEA-1 positive staining within the airways was determined. The UEA-1 positive staining was normalized to the area of airway analyzed and represented as ‘UEA-1 stained area per micron of epithelia’. Data are expressed as mean±SEM. Statistical significance was determined using a parametric one way ANOVA and Dunnetts post-test. […]

[2] = system: established IL-13-driven goblet cell metaplasia; assay: Therapeutic treatment with anti-Notch2 antibody in vivo (IL-13 mouse model); details: antibody D3 20 mg/kg i.p. days 4, 6, 8, 10
Method: (§1) RNA was isolated from 3D bronchosphere cultures with Trizol (Invitrogen), using manufacturer's specifications. To isolate RNA from mouse tissue, approximately 20 mg of tissue was placed in a 1.5 ml eppendorf tube with 1 ml of Buffer RLT Plus (Qiagen). A 5 mm stainless steel bead (Qiagen) was added to the tube, and the tissue was sheared using a Tissue Lyser II (Qiagen). RNA from the sheared tissue was purified using the RNeasy Plus Mini Kit (Qiagen), using manufacturer's specifications. TaqMan Reverse Trascription Reagents (Invitrogen) were used to generate cDNA from 1 μg of total RNA. Quantitative PCR was performed on a ViiA7 Real-Time PCR System (Applied Biosystems), using 40 ng of cDNA per reaction with the following Taqman probes (Applied Biosystems): MUC5AC, Hs01365601_m1; MUC5B, Hs00861588_m1; FOXA3, Hs00270130_m1; FOXJ1, Hs00230964_m1; DNAI2, Hs01001544_m1; TP63, Hs00978340_m1; ITGA6, Hs01041011_m1; GAPDH, Hs99999905_m1; Muc5ac, Mm012718_m1; Foxj1, Mm012367279_m1; Trp63, Mm00495788_m1; Gapdh, Mm99999915_g1.
(§2) Female Balb/c mice (20-25 g) were obtained from Charles River (Morgate, UK). Mice were housed under specific pathogen free conditions and were provided with food and water ad libitum. Experiments were performed in accordance with the UK Animals Scientific Procedures Act 1986.
Mice received 0.5 μg of recombinant mouse IL-13 (Ebiosciences, UK) or phosphate-buffered saline (PBS) intranasally on 10 consecutive (days 1-10). Mice received either 20 mg/kg neutralizing anti-Notch2 antibody α-N2 (antibody D3 above) or isotype control IgG, intraperitoneally 2 hours before intranasal challenge with either IL-13 or PBS, on days 4, 6, 8 & 10 only. An additional group of mice received 0.5 μg of recombinant mouse IL-13 (Ebiosciences, UK) or phosphate-buffered saline (PBS) intranasally on 3 consecutive (days 1-3) only.
Mice were euthanized 24 hours after their final PBS or IL-13 administration. The left lungs were excised, inflated with 10% neutral buffered formalin (NBF) and preserved in NBF. Lungs were embedded in paraffin wax and lung sections obtained for each animal. Sections were stained with PAS stain for mucus.
(§3) PAS-positive staining was quantified in lung sections using Definiens Image Analysis software. Two distinct lung sections were analyzed per mouse and the total area of PAS positive staining within the sections was determined. The PAS positive staining was normalized to the area of tissue analyzed and represented as ‘Relative Area PAS Positive Mucus (%)’.
(§4) Data are expressed as mean±SEM. Statistical significance was determined using a parametric one way ANOVA and Dunnetts post-test. GraphPad Prism (version 5.04) was used to generate graphs and perform statistical analysis. ***p<0.001 denotes statistically significant difference from the isotype control group.

[3] = system: IL-13 driven goblet cell metaplasia; assay: IL-13 mouse model, co-administration of anti-Notch2 antibodies; assay type: in vivo
Method: as §1, §2
Mice received 0.5 μg of recombinant mouse IL-13 (Ebiosciences, UK) or phosphate-buffered saline (PBS) intranasally on 3 consecutive (days 1, 2, 3). Mice received either 20 mg/kg neutralizing antibody against Notch2 (α-N2 D3 or α-N2 59R5) or control IgG, or PBS intraperitoneally 2 hours before intranasal challenge with either IL-13 or PBS, on days 1 and 3 only. Mice were euthanized 24 hours after the final IL-13 administration. The left lungs were excised, inflated with 10% neutral buffered formalin (NBF) and preserved in NBF. Lungs were embedded in paraffin wax and lung sections were obtained for each animal. Sections were stained with Periodic Acid-Schiff (PAS) stain for mucus.
as §3, with “PAS positive” for “PAS-positive”
as §4, with “relevant” for “the”

B1: D3: anti-Notch2 antagonist IgG1 antibody, heavy chain SEQ ID NO: 3 (N-terminal glutamine), light chain SEQ ID NO: 4; sole antibody in therapeutic models (antibody)
heavy: QVQLVESGGGLVQPGGSLRLSCAAGYTFSSYGMSWVRQAPGKGLEWVSYIYPYSGATYYADSVKGRFTISADTSKNTAYLQMNSLRAEDTAVYYCARHSGYYRISSAMDVWGQGTLVTVSSASTKGPSVFPLAPSSKSTSGGTAALGCLVKDYFPEPVTVSWNSGALTSGVHTFPAVLQSSGLYSLSSVVTVPSSSLGTQTYICNVNHKPSNTKVDKRV[not shown - human IgG1 Fc]
light: DIQMTQSPSSLSASVGDRVTITCRASQNIKRFLAWYQQKPGKAPKLLIYGASTRESGVPSRFSGSGSGTDFTLTISSLQPEDFATYYCQQYYRSPHTFGQGTKVEIKRTVAAPSVFIFPPSDEQLKSGTASVVCLLNNFYPREAKVQWKVDNALQSGNSQESVTEQDSKDSTYSLSSTLTLSKADYEKHKVYACEVTHQGLSSPVTKSFNRGEC
modifications: Synthetic human sequence
goblet cell formation (UEA-1 staining of lung sections) [1]: reversed
effect on basal cell marker Trp63, qPCR of whole lung tissue ([2]; FIG. 7c bottom): no effect
ciliated cell marker Foxj1, qPCR of whole lung tissue ([2]; FIG. 7c middle): concomitant increase
established goblet cell formation (PAS staining of lung sections) ([2]; IL-13 intranasally days 1-10, FIG. 7a, 7b): reversed
Muc5ac expression levels, qPCR of whole lung tissue RNA ([2]; confirms reversal, FIG. 7c top): verified this observation
effect on basal cell marker Trp63, qPCR of whole lung tissue ([3]; 20 mg/kg i.p. days 1 and 3, FIG. 6e): no effect
ciliated cell marker Foxj1, qPCR of whole lung tissue ([3]; 20 mg/kg i.p. days 1 and 3, FIG. 6d): concomitant increase
Muc5ac expression levels, qPCR of whole lung tissue RNA ([3]; 20 mg/kg i.p. days 1 and 3, confirms reduced goblet cell metaplasia, FIG. 6c): verified this observation
IL-13 driven goblet cell metaplasia (PAS staining of lung sections) ([3]; Balb/c mice, 20 mg/kg antibody i.p. 2 hours before intranasal IL-13, days 1 and 3, FIGS. 6a, 6b): completely blocked

From patent US9944700B2, “Notch2 binding molecules for treating respiratory diseases” (NOVARTIS AG, priority 2013, dated 2018)
